In all, about 310,000 compounds went through this assay and about 14,000 (4.5%) showed an effect of 50% or more. Effects have a minus sign here. The list shows a part of the results. Where no end group is shown, it is not given here.
Target: human ether-à-go-go-related gene (hERG) potassium channel (human, UniProt Q12809)
Experiment: primary screen, population patch clamp on CHO cells stably expressing hERG
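Further: peak tail current of the secondary pulse compared with the same well before compound.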

Sequence of human ether-à-go-go-related gene (hERG) potassium channel (Q12809 whole entry, looked up): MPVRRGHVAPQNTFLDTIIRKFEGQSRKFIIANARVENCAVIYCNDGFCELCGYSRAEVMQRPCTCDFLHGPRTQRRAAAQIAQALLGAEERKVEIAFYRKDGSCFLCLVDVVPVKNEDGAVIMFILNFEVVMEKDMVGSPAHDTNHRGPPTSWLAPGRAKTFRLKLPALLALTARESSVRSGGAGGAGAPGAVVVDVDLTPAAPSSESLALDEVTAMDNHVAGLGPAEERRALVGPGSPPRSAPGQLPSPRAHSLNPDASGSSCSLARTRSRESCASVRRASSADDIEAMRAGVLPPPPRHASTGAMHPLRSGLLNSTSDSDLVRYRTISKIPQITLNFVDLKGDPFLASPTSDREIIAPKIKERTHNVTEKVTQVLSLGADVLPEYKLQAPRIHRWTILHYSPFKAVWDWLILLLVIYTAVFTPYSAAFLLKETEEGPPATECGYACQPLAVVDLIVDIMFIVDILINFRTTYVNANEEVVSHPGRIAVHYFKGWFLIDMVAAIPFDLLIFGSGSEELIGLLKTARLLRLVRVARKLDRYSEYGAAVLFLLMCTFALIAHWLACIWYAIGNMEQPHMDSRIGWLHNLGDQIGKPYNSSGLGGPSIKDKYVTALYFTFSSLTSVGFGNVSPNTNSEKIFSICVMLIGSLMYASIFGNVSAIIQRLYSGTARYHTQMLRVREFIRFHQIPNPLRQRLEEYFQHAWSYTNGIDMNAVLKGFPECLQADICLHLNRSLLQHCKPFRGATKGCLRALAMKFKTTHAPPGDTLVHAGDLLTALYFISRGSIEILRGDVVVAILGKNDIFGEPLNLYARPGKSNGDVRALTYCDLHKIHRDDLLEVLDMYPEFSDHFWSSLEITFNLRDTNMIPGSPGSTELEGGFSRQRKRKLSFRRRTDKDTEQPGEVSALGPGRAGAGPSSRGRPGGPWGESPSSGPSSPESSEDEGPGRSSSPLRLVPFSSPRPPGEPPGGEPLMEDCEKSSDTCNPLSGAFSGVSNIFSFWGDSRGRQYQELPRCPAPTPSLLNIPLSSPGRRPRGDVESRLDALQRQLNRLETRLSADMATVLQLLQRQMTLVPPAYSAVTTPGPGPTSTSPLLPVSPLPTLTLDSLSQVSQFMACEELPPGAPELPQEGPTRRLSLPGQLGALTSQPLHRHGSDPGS

| Molecule | hERG current change (%, negative = inhibition) at 10uM [%] |
| --- | --- |
| Oc1ccc(C(=S)N2CCCCC2)cc1 | 12.8 |
| CC(C)(C)c1ccc(/C=N/OCC(=O)NCc2ccccc2)cc1 | -16.5 |
| C/C(=N\NC(=O)c1cc(-c2cccnc2)nc2ccccc12)c1ccc(O)cc1O | 1.5 |
| Cn1nnnc1SCc1ccccc1[N+](=O)[O-] | -1.75 |
| COC(=O)c1c(C)[nH]c(C(=O)C(C)OC(=O)C2CC(=O)N(CCc3ccccc3)C2)c1C (stereo not drawn) | -8.06 |
| CN(C)CCNC(=O)/C(=C/c1cccc([N+](=O)[O-])c1)NC(=O)c1ccccc1 | -66.9 |
| Cc1ccc(NC(=O)c2ccc(S(=O)(=O)N3CCCCC3)cc2)nc1 | -5.04 |
| O=C(NC(=S)Nc1ccccn1)c1cc(-c2ccccc2)nc2ccccc12 | 14.5 |
| C[N+]12CCC(CC1)C(C(O)(c1ccccc1)c1cccs1)C2.[I-] (stereo not drawn) | 5.66 |
| Cc1ccc2nsnc2c1NC(=O)Cc1ccc(Cl)cc1 | 13.5 |
| O=C(Nc1ccc(SC(F)F)cc1)c1ccc2c(=O)n3c(nc2c1)CCC3 | -22.9 |
| CS(=O)(=O)N(CC(=O)NCCSCc1cccc(Cl)c1)c1ccc(F)cc1 | -30.2 |
| Cc1ccc(CC2SC(=O)NC2=O)cc1Cl (stereo not drawn) | 4.36 |
| CN(C)S(=O)(=O)c1ccc(C(=O)OCc2ccc([N+](=O)[O-])cc2)cc1 | 17.6 |
| O=C(Cc1ccc(Br)cc1)Nc1cccc(Cl)c1 | 5.03 |
| COc1cc(/C=C/C(=O)OCC(=O)N2CCC(Cc3ccccc3)CC2)ccc1O | -1.08 |
| Cc1ccc(CNC(=O)CCC(=O)N2CC(C)Oc3ccc(Cl)cc32)cc1 (stereo not drawn) | -43.1 |
| COc1ccccc1N1CCN(C(=O)CCc2ccc(S(=O)(=O)NC(C)C)cc2)CC1 | 0.143 |
| CCN(c1ccccc1)S(=O)(=O)c1ccc(Cl)c(NC(=O)COC(=O)c2cccc(OC)c2O)c1 | -3.62 |
| CC1(C)CC(=O)C(CC2=C(O)CC(C)(C)CC2=O)=C(O)C1 | -0.604 |
| CCCCN(C(=O)CSc1n[nH]c(-c2ccc(C)cc2)n1)c1c(N)n(CCCC)c(=O)[nH]c1=O | 5.4 |

| Molecule | hERG current change (%, negative = inhibition) at 10uM [%] |
| --- | --- |
| COc1ccc(-c2c(C)nn3c(N4CCC5(CC4)OCCO5)cc(C)nc23)cc1OC | 16.5 |
| Cc1ccc(NS(=O)(=O)c2ccc(NC(=O)C(C)Sc3ccc(Cl)cc3)cc2)c(C)c1 (stereo not drawn) | 0.496 |
| CCCCN1C(=O)C(NC(C)=O)c2ccccc21 (stereo not drawn) | 7 |
| Cc1ccc([C@@H]2[C@@H]3C(=O)N(c4ccccc4)C(=O)[C@@H]3[C@]3(C)C(=O)N(Cc4ccccc4)CC(=O)N23)o1 | 9.04 |
| CC(C)S(=O)(=O)c1nsc2nc(=O)c(/C=C3\C=Nc4ccccc43)c(N)n12 | 13.6 |
| O=C(OCC(=O)c1ccc([N+](=O)[O-])cc1)/C(=C\c1ccc(Cl)cc1)NC(=O)c1ccccc1 | -64.4 |
| COc1ccc(C(=O)NCCc2nnc3ccc(SCC(=O)Nc4ccccc4F)nn23)cc1 | -12.6 |
| Cc1cc(Oc2ccc(OCC(N)=O)nn2)nc(Cl)n1 | 7.6 |
| O=C(Nc1ccc(F)cc1)N1CCN(c2ncccn2)CC1 | -2.77 |
| Cc1ccc(CN(C)C(=O)CN2C(=O)NC3(CCCc4ccccc43)C2=O)c(C)c1 (stereo not drawn) | -35.4 |
| N#C/C(=C(/O)CN1CCCCC1)c1nc(-c2ccc(Cl)cc2)cs1 | -1.62 |
| CCC(C)[C@H](NC(=O)N1CCn2c1nc1ccccc12)C(=O)NCc1ccc(OC)cc1 (stereo partly drawn) | 0.965 |
| Cn1c(=O)c2c(nc(SCC(=O)NCc3ccc4c(c3)OCO4)n2Cc2ccc(F)cc2)n(C)c1=O | -63.1 |
| Cc1sc2ncnc(Nc3ccc(O)cc3)c2c1C | 14.3 |
| CC(=O)c1cc(C(=O)N2CCCC(CCC(=O)N(C)CCc3ccccn3)C2)cs1 (stereo not drawn) | 8.94 |
| COC(=O)c1ccc(/C=N/Nc2nc3ccccc3[nH]2)cc1 | 11.4 |
| CC(NC(=O)C(C)(C)C)C(c1cccs1)N1CCOCC1 (stereo not drawn) | -3.2 |
| Cc1cc(C)n(-c2ccc(C(=O)N3CCN(S(=O)(=O)c4ccc(C(C)C)cc4)CC3)cc2)n1 | -18.4 |
| O=C(NCc1ccco1)c1cc(-c2ccco2)on1 | 4.86 |
| Cc1ccc(N(CCCCN2C(=O)c3ccccc3C2=O)C(=O)c2cccs2)cc1 | -67.3 |
| O=C(Cc1c[nH]c2ccccc12)NCc1ccco1 | 3.9 |

| Molecule | hERG current change (%, negative = inhibition) at 10uM [%] |
| --- | --- |
| COC(=O)c1ccc2c(=O)n(CCN3CCOCC3)c(SCC(=O)Nc3cccc(OC)c3)nc2c1 | -37.9 |
| COc1ccc([N+](=O)[O-])cc1NC(=O)C1(c2ccc(OC)c(OC)c2)CCOCC1 | -14.4 |
| CSCC[C@H](NC(=O)COc1ccc(Cl)cc1)c1nc2ccccc2[nH]1 | -56.5 |
| O=C(Oc1cccc(-n2cnnn2)c1)c1sc2ccccc2c1Cl | 13.4 |
| Cn1c(NCC2CCCO2)nc2c1c(=O)n(Cc1ccccc1)c(=O)n2C (stereo not drawn) | -1.06 |
| Cc1oc(-c2ccc(Cl)cc2)nc1CN1CCC(C(=O)NCc2cccnc2)CC1 | -65.9 |
| COc1cccc(NC(=S)N2CCn3cccc3C2c2cccnc2)c1 (stereo not drawn) | -22.4 |
| C#CC(=O)N(c1cccc(OC)c1)C(C(=O)NC1CCCC1)c1cccs1 (stereo not drawn) | -1.56 |
| COc1cccc(C(=O)NCCS(=O)(=O)N(C)Cc2ccccc2)c1 | -27.3 |
| Cc1ccc(S(=O)(=O)N2[C@@H](c3ccc(Cl)cc3)C(C(=O)O)=CC[C@H]2c2ccc(Cl)cc2)cc1 | 4.26 |
| COc1ccc(N=C2CCS(=O)(=O)c3sccc32)cc1 | 15.1 |
| Cc1cc(N2C(=O)C(O)=C(C(=O)c3ccco3)C2c2cccc(O)c2)no1 (stereo not drawn) | 18.5 |
| C=CCn1c(COc2cccc(C)c2C)nnc1SCC(=O)N1CCN(c2ccccc2)CC1 | -48.7 |
| COc1ccccc1CNC(=O)COC(=O)c1cc(S(=O)(=O)N2CCOCC2)ccc1Cl | -40.1 |
| C=C1c2ccc(C)cc2NC(=O)N1c1ccccc1 | -1.2 |
| CC1CC(=O)N(CC(=O)NCc2ccco2)c2ccccc2S1 (stereo not drawn) | -18.4 |
| Cc1cccc(-n2nnnc2SCC(=O)Nc2cccc(S(N)(=O)=O)c2)c1 | 3.64 |
| Cc1ccc(C)c(N2CCN(C(=O)CCCn3ncn4c(cc5occc54)c3=O)CC2)c1 | -63.4 |
| COC(=O)c1ccc2c(=O)[nH]c(CSc3nc(C)cs3)nc2c1 | 22.7 |
| CC(=O)Nc1cccc(C(=O)OC2CCOC2=O)c1 (stereo not drawn) | -1.99 |
| CCc1ccc(NC(=O)NCCCN2CCCC2=O)cc1 | 0.255 |

| Molecule | hERG current change (%, negative = inhibition) at 10uM [%] |
| --- | --- |
| RKDVY | 19.1 |
| COc1cccc(CNC(=O)c2cccnc2Sc2ccc(Cl)cc2)c1 | 16.3 |
| O=C(NNC(=S)NCc1ccc(Cl)cc1)c1ccc(Br)o1 | 24.9 |
| Cc1ccc(S(=O)(=O)/N=C(\CN2CCOCC2)N2CCOCC2)cc1 | 29.2 |
| CC(/C=N\NC(=O)Cn1cncn1)=C/c1ccc(C(C)C)cc1 | -14.9 |
| CCOc1cc(CNCCN(C)C)c(Cl)cc1OCC(=O)NCCc1ccccc1.Cl | -10.8 |
| CC(C)C(NS(=O)(=O)c1cccc2nsnc12)C(=O)NCc1ccco1 (stereo not drawn) | 1.68 |
| C[C@@H](C(=O)NCCCCCC(=O)O)n1nnc2ccccc2c1=O | 5.45 |
| O=C1C=Cc2ccccc2/C1=C/c1[nH]c(=O)[nH]c1O | 7.87 |
| CC(Oc1ccc(-c2ccccc2)c(F)c1)c1ccn(S(=O)(=O)c2ccc(F)cc2)n1 (stereo not drawn) | 16 |
| COc1ccc(N(CC(=O)NCc2ccco2)S(C)(=O)=O)c(OC)c1 | 16.6 |
| CCN1CCN(c2cc(C)nc(-c3ccccc3O)n2)CC1 | -58.9 |
| CC1C(=O)NN=C1C(=O)N/N=C\c1ccc(O)cc1O (stereo not drawn) | 8.46 |
| CCOC(=O)C(=O)c1csc(NC(=O)COc2ccc(N(C)S(=O)(=O)c3ccc(F)cc3)cc2)n1 | -6.13 |
| CN(Cc1c(F)cccc1Cl)C(=O)c1ccc(NS(=O)(=O)c2ccc3[nH]c(=O)[nH]c3c2)cc1 | -7.03 |
| CN(CC(=O)NCC1CCCCC1)S(=O)(=O)c1ccc(F)cc1 | 7.11 |
| O=C(Nc1cn(-c2ccccc2)nc1-c1ccccc1)c1ccccc1 | 12.2 |
| CC(=O)N1CCC(O)(c2cccc(C(F)(F)F)c2)CC1 | 12.7 |
| CC(C)OC(=O)CN1C(=O)c2ccccc2C1=O | 11.2 |
| O=C(CCc1nc2ccccc2c(=O)[nH]1)Nc1cccc(S(=O)(=O)N2CCOCC2)c1 | -5.63 |
| O=C(C[n+]1cccc(CNC(=O)c2ccc(OC(F)F)cc2)c1)Nc1ccc(SC(F)F)cc1.[Cl-] | -41.1 |
